Some of the results follow. Antibody binding of pooled human sera (four to six donors per pool; dilution not stated) to peptides of the Trypanosoma cruzi antigen TSSA on microarrays. Quantile-normalised fluorescence in arbitrary units, mean of duplicate arrays; higher = more binding. No active / inactive call. The uninfected pools are read here as the healthy donors of the same country. The strongest signals lie near the top of the scale (about 60,000).

Results on 40 sequences are retold here after the supplement of paper PMC10441789.

This test concerns pooled sera of uninfected people, Colombia. Kind of test: antibody binding signal (normalised fluorescence) (arbitrary fluorescence units); higher = stronger serum antibody binding to peptide. The procedure:
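Microarray of 15-residue peptides over residues 30-55 of Trypanosoma cruzi TSSAII, each with 1 to 10 substitutions at naturally variable positions, probed with one serum pool per country.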
Sequence KENKAAAGEAPSQPG yielded an antibody binding signal of 129. The same measure for ISTPPSGKDNKTAAG: 250; for GTDKKPAAGEAPSQS: 153; for TDNKAAAGGTPSPPG: 409. The same measure for KENKPAAGETPSPPG: 167; for TPPSGTDKKAATGGA: 570. The same measure for GTDKKPAAGEAPSPP: 137. As to SGKDKKTATGEAPSP, the antibody binding signal amounted to 222. The same measure for TSSTPPSGKEKKPAA: 292; for KENKPAAGGTPSPPG: 270; for GKDKKAATGETPSQP: 187. Take STPPSGKDNKAAAGE: the antibody binding signal is 324. The same measure for KDKKTATGEAPSQSG: 85; for TDKKTATGEAPSPPG: 94.5; for SSTPPSGKENKPAAG: 672.

For PPSGTDNKPAAGGTP, the antibody binding signal is 1030. The same measure for SGTDKKAATGEAPSQ: 636; for DKKTATGEAPSPSGA: 94.2. The same measure for GTDKKPATGGTPSPP: 215; for SGKDKKAATGGTPSP: 287. The same measure for DNKAATGETPSQPGA: 228; for PSGTDNKTAAGGAPS: 306; for ISTPPSGKEKKAATG: 280. Sequence KPATGEAPSPPGASS showed an antibody binding signal of 163. The same measure for SGTEKKPAAGGAPSQ: 92.8; for GKEKKTAAGEAPSQS: 246. GKENKPAAGETPSPP gave an antibody binding signal of 204. Sequence GTEKKAATGGTPSQP showed an antibody binding signal of 1000. The same measure for GKDNKAATGGAPSQS: 117; for KTATGGTPSPSGASS: 226. The same measure for KTAAGGTPSQSGASS: 89.5; for SGTDNKTATGGTPSP: 644. The same measure for KENKPATGETPSQPG: 266; for DKKTATGETPSPSGA: 127; for TSSTPPSGTDNKTAA: 426.

Turning to GKENKPAAGGTPSQS, the antibody binding signal is 186. The same measure for GTDNKTAAGEAPSQP: 168; for GKENKPAAGGAPSPS: 109. In turn, SGKEKKAATGGTPSQ gave an antibody binding signal of 393.

The sequence KDNKAATGGAPSPPG returned an antibody binding signal of 149.
